The results in this text go back to PubChem BioAssay AID434955 (Southern Research Specialized Biocontainment Screening …, 2010).

This is one part of the list. These are further read-outs of the screen, such as a control signal, another cell line or another target. No call is given for them. Most of these compounds were active or inconclusive in the main read-out, so they are no random draw.

The experiment is described as follows: beta-lactam sensitization of Mtb H37Rv, H37Rv (AID 434955).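 Further: growth measured after seven days incubation then overnight dye step; 0% = bacteria only wells and 100% = bacteria with antibiotic.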 Conditions: M. tuberculosis H37Rv growth with meropenem, percent inhibition; measured here: primary screen without meropenem; at 25 µM.
As for `O=C(Nc1cccc(-c2ccc(N3CCCCC3)nn2)c1)C(F)(F)F`, the inhibition was 5.09%. The figure for `COc1cccc(C2CC(c3ccc(C)cc3)n3nc(N)nc3N2)c1` (stereo not given) is -14.8%; for `CC1(C)CC(CCNC(=O)CCl)(c2ccccc2)CCO1` (stereo not given) it is 49.6%. As to `CCOc1cc(/C=N/Nc2nc(-c3cccs3)c(NC(C)=O)s2)ccc1O`, the inhibition came to 37.3%. Consider `O=C(Nc1ccccc1)N1CCC(C(=O)N2CCN(S(=O)(=O)c3cccc(F)c3)CC2)CC1`, for which the inhibition turned out to be 5.28%. To `CCC(=O)N1CCc2cc(Br)cc(S(=O)(=O)NCC3CCCN3CC)c21` (stereo not given) belongs 10.7%.

As to `COc1ccccc1N1CC(C(=O)Nc2nnc(SCC(=O)NCC3CCCO3)s2)CC1=O` (stereo not given), the inhibition is -2.5%. Regarding `CCN(CC)C(=O)C1CCN(C(=O)c2oc3ccc(C)cc3c2C)CC1`, the inhibition came to 1.17%. On to `Cc1[nH]c2ccccc2c1C(=O)COC(=O)C1CCC1`, for which the inhibition was found to be 1.6%.

For `O=C(N/C(=C/c1ccco1)C(=O)N1CCOCC1)c1ccccc1Br`, the inhibition is -0.22%. Regarding `Cc1ccc(NC(=O)COc2ccc(C(=O)NCCc3ccccc3)cc2)cc1`, the inhibition is -0.96%. `CC(=O)c1cccc(NC(=O)CN2C(=O)c3cccnc3Oc3ccc(Cl)cc32)c1`: the inhibition was determined as 3.46%. In the case of `CCN1CCN(C(=O)C(=O)c2cn(CC(=O)N3CCCC3)c3ccccc23)CC1`, the inhibition worked out at 9.45%. As to `C=CCNc1nc2ccccc2nc1NS(=O)(=O)c1cccc(C)c1`, the inhibition was -0.75%. `CCOC(=O)N1CCN(C(=O)c2cc(COc3ccc(F)cc3F)on2)CC1`: the inhibition was -0.7%.

In the case of `FC(F)(F)c1ccc(/C=N/n2c(C3CCCCC3)n[nH]c2=S)cc1`, the inhibition was 20%. Take `CC(=O)Nc1cn(C(C)=O)c(C)n1`: the inhibition was -4.39%. Consider `COc1ccccc1CN1CC(C(=O)NC2(c3ccccc3)CC2)CCC1=O` (stereo not given), for which the inhibition came to 3.64%. For `COc1ccc(C(=O)N=c2sc3c(C)ccc(OC)c3n2C)cc1OC`, the inhibition was found to be 0.98%. On to `Cc1csc2c(=O)n3c(nc12)CCCCC3`, for which the inhibition was 3.52%. As for `Cc1ccc(S(=O)(=O)C2(C(=O)N3CCN(C4CCCCC4)CC3)CC2)cc1`, the inhibition is -1.73%. The figure for `O=C(NCCc1ccccn1)C(F)(F)C(F)(F)C(F)(F)C(F)(F)C(F)(F)C(F)(F)C(F)(F)C(F)F` is -0.42%. The figure for `CCOc1ccc2ccccc2c1C(=O)N1CCN(c2ccccc2)CC1` is 3.48%; for `CSCC[C@H](NC(=O)c1cccs1)c1nnc2ccccn12` it is -2.17%.

For `O=C(c1ccc2c(c1)OCO2)N1CCC2(CC1)OCCO2`, the inhibition is 3.66%. In the case of `CCc1cc2c(-c3ccccc3)cc(=O)oc2cc1OC(C)C(C)=O` (stereo not given), the inhibition was -0.99%. The figure for `COc1ccccc1CCC(=O)Nc1cccc(S(=O)(=O)N2CCOCC2)c1` is -0.56%; for `COc1ccc(S(=O)(=O)N2CCN(C(=O)c3cc(-c4ccc(C)cc4)n[nH]3)CC2)cc1` it is 4.09%; for `COc1ccc(NC(=O)c2cccc(N3C(=O)C4C5C=CC(C6CC56)C4C3=O)c2)cc1` (stereo not given) it is -0.64%. Consider `COC(=O)[C@H](CCSC)NC(=O)NCCc1ccc(F)cc1`, for which the inhibition worked out at 0.77%.

Regarding `O=C(Cc1ccc(F)cc1)Nc1ccccc1Sc1ccccc1`, the inhibition was -6.58%. Take `CCC(=O)NC(=S)Nc1ccc(-c2nc3ccccc3s2)cc1`: the inhibition was 20.4%. As to `CCOC(=O)c1c(C)n(C)c2ccc(OCC(O)Cn3c(C)nc4ccccc43)cc12` (stereo not given), the inhibition stood at 81.1%. With `COc1cc2c(cc1OC)-c1cc(NC3CCCC3)nc(=O)n1CC2`, the inhibition is -6.97%. For the molecule `COc1ccc(N(C(=O)c2cccnc2)S(=O)(=O)c2ccc(Cl)cc2)cc1`, the inhibition came out at 0.37%. `COc1ccc(CCN2CCCC(CN(C)C(=O)c3cc(C)oc3C)C2)cc1` (stereo not given): the inhibition is 1.72%. Consider `CCOC(CNC(=O)CN1C(=O)COc2ccc(S(=O)(=O)N3CC(C)CC(C)C3)cc21)OCC` (stereo not given), for which the inhibition amounted to 2.48%.

Consider `O=C(NCCCn1ccnc1)/C(=C\c1cccnc1)NC(=O)c1cccc(Br)c1`, for which the inhibition is -5.5%. As for `COc1cc(OC)cc(C(=O)NN2CCCCC2)c1`, the inhibition was -0.06%. As for `CCc1ccc(OCC(=O)N/N=C/c2cc([N+](=O)[O-])ccc2N2CCOCC2)cc1`, the inhibition is 72.5%.

With `O=C(COCc1cc(-c2ccc3c(c2)OCO3)on1)N1CCN(c2ccccc2)CC1`, the inhibition was 4.76%. As to `CC1CCCCN1S(=O)(=O)c1ccc2c(c1)C(C)(C)C(=O)N2C` (stereo not given), the inhibition is -6.07%. The figure for `CCN(CC(=O)N1CCc2ccccc2C1)S(=O)(=O)c1ccc2ccccc2c1` is 5.34%; for `COc1ccccc1N1CCN(S(=O)(=O)c2ccc3nc(-c4ccccc4)[nH]c3c2)CC1` it is 29.8%. The figure for `Cc1nc2cc(NC(=O)COc3ccc(C#N)cc3)ccc2n1-c1ccccc1` is 73.8%. As for `Cc1cccc(NC(NC(=O)c2cccnc2)C(Cl)(Cl)Cl)c1` (stereo not given), the inhibition is -1.38%. Turning to `O=c1ccc(-c2ccccc2)nn1Cc1ccc(F)cc1`, the inhibition is 11.5%. Turning to `Cc1csc(NC(=O)C2CCCO2)n1` (stereo not given), the inhibition worked out at 1.41%. Consider `O=C(NC1CCCCC1)c1cc2ccccc2cc1O`, for which the inhibition came to 5.7%.

Take `O=C(Nc1ccon1)c1ccc(F)c(S(=O)(=O)N2CCCCC2)c1`: the inhibition amounted to 1.2%. For `O=C(NC(=S)NC1CCS(=O)(=O)C1)c1ccccc1F` (stereo not given), the inhibition was -5.12%. In the case of `N#Cc1ccsc1NC(=O)CCS(=O)(=O)c1ccccc1`, the inhibition was determined as 0.69%.

As to `COc1ccc2oc(C(=O)Nc3nc4ccccc4[nH]3)c(C)c2c1`, the inhibition turned out to be 25.6%. In the case of `COc1ccc(CCNC(=O)CCc2nnc(Cc3ccc4c(c3)OCO4)o2)cc1`, the inhibition came to 3.46%. To `CSc1ccccc1C(=O)Nc1cccc([N+](=O)[O-])c1C` belongs -0.5%; to `O=C(Cn1nnc(-c2cccs2)n1)N1c2ccccc2Sc2ccc(C(F)(F)F)cc21`, 2.06%; to `CCCc1cc(NCCCCO)n2c(nc3ccccc32)c1C#N`, -18.1%. With `CCOC(=O)c1oc2ccccc2c1NC(=O)c1cccc(OC)c1OC`, the inhibition was -3.13%. As to `COc1cc(CSc2nc(-c3ccccc3)cc(=O)[nH]2)cc(OC)c1`, the inhibition was 2.19%.

Consider `CCOC(=O)N1CCC(n2c(=S)[nH]c3cc(OC)c(OC)cc3c2=O)CC1`, for which the inhibition is -0.02%. Consider `Cc1ccc(-c2csc3ncnc(N4CCc5ccccc5C4)c23)cc1`, for which the inhibition was 8%. With `Cc1cc2c(cc(C(=O)OCC(=O)NCc3ccco3)n2C)s1`, the inhibition was 1.6%. For `O=C(COc1ccccc1)NNC(=O)c1cc2ccccc2o1`, the inhibition worked out at 2%. Regarding `CCCC(O)(c1ccc(Br)cc1)C(CN1CCOCC1)c1ccc(Cl)cc1` (stereo not given), the inhibition was found to be 96.7%. The figure for `O=C(CC1C(=O)NCCN1Cc1ccccc1F)NC1CCCCCC1` (stereo not given) is 3.72%; for `CC1(C)CC(=O)c2cc(C(=O)NCc3ccco3)c(=O)n(-c3ccccc3)c2C1` it is 19%. The figure for `CCOC(=O)CSc1nnc(CNc2ccccc2Cl)n1-c1ccccc1` is -2.78%. In the case of `N#Cc1c2n(c3c(=O)n(Cc4ccccc4Cl)cnc13)CCCC2`, the inhibition is 4.98%. Regarding `CCOc1ccc2c(c1)c(C(C)=O)c(C)n2-c1ccccc1`, the inhibition amounted to 47.7%. Take `O=C(Nc1cccc(-c2cn3cccnc3n2)c1)c1ccc(Br)o1`: the inhibition stood at 2.6%. The figure for `Cc1cc(C)n(-c2nc3ccccc3c(=O)n2OCC(C)C)n1` is -1.31%; for `Cc1ccc(-c2n[nH]c(=S)nc2-c2ccc(C)cc2)cc1` it is 4.05%; for `CN(C)c1ccc(CN2CC=C(c3ccc(F)cc3)CC2)cc1` it is 5.45%.

Regarding `CC(=O)Nc1ccc(Nc2ncc([N+](=O)[O-])c(Nc3ccc(NC(C)=O)cc3)n2)cc1`, the inhibition is 47.7%.

For the molecule `NS(=O)(=O)c1ccc(O)c(NC(=O)c2ccc([N+](=O)[O-])o2)c1`, the inhibition was found to be 15.1%. The figure for `COC(=O)Cn1cnc2c(nnn2-c2ccc(C)cc2)c1=O` is 0.21%; for `Cc1cc(NS(=O)(=O)c2ccc(N3C(=O)C4C5C=CC(C5)C4C3=O)cc2)nc(C)n1` (stereo not given) it is 0.58%; for `CC1CCCCN1CCCNC(=O)CN1C(=O)c2cccnc2Oc2ccc(Cl)cc21` (stereo not given) it is 4%. As to `O=C(CN(Cc1ccccc1)C(=O)c1cccc([N+](=O)[O-])c1)Nc1c(Cl)cc(Cl)cc1Cl`, the inhibition is -1.11%. The figure for `CCOC(=O)c1c(C)[nH]c(C)c1C(=O)COC(=O)/C=C/c1ccc(OC(F)F)cc1` is 14.6%; for `O=C(Nc1ccc(F)cc1)c1ccc2c(=O)n3c(nc2c1)CCCCC3` it is -3.27%.

Take `Cc1cccc(OCCNc2cc(N3CCN(C)CC3)ccc2[N+](=O)[O-])c1`: the inhibition was 86%. For `CC(=O)Nc1ccc(N2CCN(C(=O)c3cccs3)CC2)cc1`, the inhibition was determined as 5.16%.

For `CN(C(=O)CN1C(=O)S/C(=C\c2cccc(Cl)c2)C1=O)C1CCS(=O)(=O)C1` (stereo not given), the inhibition was -0.44%. Regarding `Cc1ccc(-n2c(N)cc(=O)nc2SCC(=O)N2CCN(c3ccccc3)CC2)cc1C`, the inhibition is -4.15%. Take `Cc1cc2oc(=O)cc(CN3CCC(C)CC3)c2cc1C`: the inhibition was 21.6%. With `c1ccc(-c2ccc(C3=Nn4c(Cn5nnc6ccccc65)nnc4SC3)cc2)cc1`, the inhibition turned out to be 13.7%. Regarding `COc1cccc2sc(N(CCN(C)C)C(=O)c3ccc(S(=O)(=O)N4CCCC4)cc3)nc12`, the inhibition amounted to 2.38%. Regarding `O=C(CSc1nc(N2CCOCC2)nc(N2CCOCC2)n1)Nc1cccc(C(F)(F)F)c1`, the inhibition was 0.28%. To `COC(=O)c1nnn(CC(=O)NC(=O)Nc2ccc(F)cc2)c1C(=O)OC` belongs 2.34%. As for `Cn1c(CCNC(=O)c2ccco2)nc2cc(NC(=O)NC3CCCCC3)ccc21`, the inhibition is -2.9%. Consider `COC(=O)/C(C#N)=C/c1c(N2CCCCCC2)nc2ccccn2c1=O`, for which the inhibition was -9.73%. Take `O=c1c2cc(N3CCOCC3)ccc2[nH]c(=S)n1CCCN1CCCC1`: the inhibition is -0.67%.

Consider `COc1ccc(OCc2cc(C(=O)NCC(C)(C)N3CCOCC3)no2)c(Cl)c1`, for which the inhibition is 0.74%.

In the case of `CCOc1ccc(NS(=O)(=O)c2ccc(OCC)c3ncccc23)cc1`, the inhibition is -5.12%. As to `COc1cc(C(=O)Nc2cccc(-c3cn4cccnc4n3)c2)cc(OC)c1OC`, the inhibition stood at 41.6%. As to `CS/C(N)=N/N=C/c1cc(Br)cc(Br)c1O`, the inhibition came to 5.76%. As to `CCOC(=O)Nc1ccccc1N1C(=O)c2ccccc2C1=O`, the inhibition was -1.6%.

Take `O=C(c1ccccc1)c1cc2cc(Cl)ccc2[nH]1`: the inhibition is 4.99%. Regarding `O=[N+]([O-])c1cccc(CSC2=NCCN2S(=O)(=O)c2ccccc2)c1`, the inhibition came out at 1.87%. As for `C#CCNc1cc(C)nc2ncnn12`, the inhibition is -12.2%.

Regarding `CCN(CC)c1ccc(NC(=O)CCc2nnc3ccc(N4CCCC4)nn23)c(C)c1`, the inhibition was -2.06%. The figure for `CC1CCCN(S(=O)(=O)c2ccc(C(=O)Nc3nnc(-c4ccncc4)o3)cc2)C1` (stereo not given) is 46.5%; for `COc1ccc(CCN=C(N)NS(=O)(=O)c2ccc(OC)c(OC)c2)cc1OC` it is -0.45%; for `CC(=O)OC[C@H]1O[C@@H](Sc2cccc3cccnc23)[C@H](OC(C)=O)[C@@H](OC(C)=O)[C@@H]1OC(C)=O` it is 2.18%.

For orientation: inhibition means the change of the read-out against control, counted positive when it falls.
